Results from PubChem BioAssay AID493208 (National Center for Advancing Translational Sciences (NCATS), 2011).
About 340 (0.77%) of roughly 44,000 compounds were called active. About 5% were inconclusive and are not listed. The call rests on the fitted dose curve; in most records, active means well fitted inhibition curve with a large enough effect; inconclusive means small, poorly fitted or top-dose-only effect; inactive means flat fitted curve, though single readings scatter. Some of the results follow.

Test: Acumen qHTS Assay for Inhibitors of the mTORC1 Signaling Pathway in MEF (Tsc2-/-, p53-/-) Cells: Sytravon;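 further: plate controls were DMSO for no effect and rapamycin for full effect; nearly all actives have a fitted effect of over 50% in size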
Details: phospho-rpS6 immunofluorescence/PI, 24 h; series mostly up to 38.3 µM; activity change, negative = inhibition: at the top concentration
Summary of the method: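 Immunofluorescence of rpS6 phosphorylation in Tsc2-/-, p53-/- MEFs after 24 h compound exposure, normalized to propidium iodide signal. Activity is expressed as % positive cells, thresholded with 7.5 nM rapamycin.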

| SMILES | activity change, negative = inhibition |
| --- | --- |
| CSc1cccc(NC(=O)Nc2ccccc2OCc2cc(=O)n3cc(C)ccc3n2)c1 | inactive: 9% |
| CCC(=O)N1CCc2cc(Br)cc(S(=O)(=O)CCC(=O)N3CCN(c4cccc(C)c4)C(C)C3)c21 (centres undefined) | inactive: -10.9% |
| CCc1ccc(S(=O)(=O)Nc2ccc3c(c2)n(C)c(=O)c(=O)n3C)cc1 | inactive: -12.8% |
| COc1ccc(C(=O)Nc2ccc3nc(SCC(=O)N4CCc5ccccc54)sc3c2)cc1 | inactive: 0% |
| Cc1ccc2c(c1)C(c1ccc(F)cc1)N(C(=O)c1ccc(S(=O)(=O)N3CCCCC3)cc1)CC(=O)N2 (centres undefined) | inactive: 7.35% |
| O=C(NCc1ccc(Cl)cc1)NCc1noc2ccccc12 | inactive: -2.99% |
| COc1ccc(NC(=O)CCNS(=O)(=O)c2ccc3c(c2)CCCC(=O)N3)cc1Cl | inactive: -7.19% |
| COC(=O)c1ccccc1NC(=O)C1=CC(c2cccs2)=NS(=O)(=O)N1C | inactive: -8.84% |
| COc1ccc(-n2nc3cc(C)c(NC(=O)c4ccc(-c5ccc(Cl)cc5)o4)cc3n2)cc1 | inactive: -2.57% |
| Cc1ccc(S(=O)(=O)c2nnn(-c3ccc(F)c(Cl)c3)c2N)cc1 | inactive: -2.54% |
| COc1ccc(OCc2ccc(-c3nc(C#N)c(NC(C)c4ccccc4)o3)o2)cc1 (centres undefined) | inactive: -7.91% |
| Cc1nn(CC(=O)Nc2ccc(OC(F)(F)F)cc2)c(=O)c2c(C)n(-c3ccc(Cl)cc3)nc12 | inactive: -1.26% |
| CCOc1ccc2nc(N3CCCC(C(=O)NCCc4ccc(OCC)c(OCC)c4)C3)sc2c1 (centres undefined) | inactive: -5.72% |
| COc1ccc(CCNC(=O)c2nc(-c3ccc(Cl)cc3)n3c2CCCCC3)c(OC)c1 | inactive: -8.39% |
| CCc1cccc(-n2c(=O)c3cccnc3n2CC(=O)Nc2c(C)cc(C)cc2C)c1 | inactive: 0% |
| COc1ccc(N(Cc2cc3cccc(C)c3[nH]c2=O)C(=O)c2cccc(Cl)c2)cc1 | inactive: -1.13% |
| COc1ccc2nc(N(Cc3cccnc3)C(=O)Cc3ccccc3)sc2c1 | inactive: -2.16% |
| CC(=O)N1CCc2cc(S(=O)(=O)C(C)CC(=O)Nc3ccc(Br)c(C)c3)ccc21 (centres undefined) | inactive: -6.96% |
| CN(C)S(=O)(=O)c1ccc(C(=O)NCCSc2c(-c3ccccc3)[nH]c3ccccc23)cc1 | inactive: -10% |
| CC(=O)Nc1ccc(S(=O)(=O)NC2=NCN(CCO)CN2)cc1 | inactive: 0.0321% |
| Fc1cccc(-c2nnn3c2nc(NC2CCCCC2)c2ccccc23)c1 | inactive: -6.54% |
| COc1ccc(NC(=O)C2=C(C)Nc3ncnn3C2c2cccn2C)cc1 (centres undefined) | inactive: -1.74% |
| COc1ccccc1CNC(=O)CN1C(=O)COc2ccc(S(=O)(=O)NC3CCCC3)cc21 | inactive: -6.14% |
| O=C(C1CCN(S(=O)(=O)Cc2ccccc2)CC1)N1CCN(c2cccc(C(F)(F)F)c2)CC1 | inactive: 4.43% |

| SMILES | activity change, negative = inhibition |
| --- | --- |
| CC1CCN(CC2CCN(C(=O)Nc3ccc(Br)cc3F)CC2)CC1 | inactive: 0.0748% |
| Cc1cccc(-n2c(CNC(=O)c3cccc(F)c3)nnc2SCC(=O)Nc2ccccc2F)c1 | inactive: 0.919% |
| Cc1ccc(Cl)cc1-n1ncc2c(N3CCN(Cc4ccccc4)CC3)ncnc21 | inactive: -21.6% |
| CCOC(=O)c1c(NC(=O)c2ccc(S(=O)(=O)N(C)C3CCCCC3)cc2)sc2c1CCN(C(C)C)C2 | inactive: -9.7% |
| Cc1noc(C)c1S(=O)(=O)N(CC(=O)NCCc1ccccc1)c1ccc(C(C)C)cc1 | inactive: -2.01% |
| CCOCCCN1C(=O)c2ccccc2CC1(C)C(=O)NC1CCCCC1 (centres undefined) | inactive: -2.2% |
| COC(=O)c1ccccc1NC(=O)c1sc2nc(C)cc(C)c2c1NC(=O)c1ccccc1OC | inactive: -1.41% |
| COc1ccc(NC(=O)CSc2nc3c(oc4ccccc43)c(=O)n2Cc2ccco2)cc1Cl | inactive: -5.01% |
| CC1CCN(S(=O)(=O)c2nnc(NC(=O)c3cccc(Cl)c3)s2)CC1 | inactive: 0% |
| Cc1ccc(CCNc2ncnc3onc(-c4ccc(Cl)cc4)c23)cc1 | inactive: 1.78% |
| COc1ccc(CNC(=O)CN2C(=O)CSc3ccc(S(=O)(=O)N4CCC(C)CC4)cc32)cc1 | inactive: 2.11% |
| COc1ccc(/C=C/C(=O)Nc2nc(-c3cccs3)ns2)cc1 | inactive: -5.93% |
| COc1ccc(-c2nc(S(=O)(=O)c3ccc(Cl)cc3)c(NCc3ccccc3)o2)cc1 | inactive: -1.44% |
| COc1ccc(CNC(=O)C2CCC(CNS(=O)(=O)c3ccc4c(c3)CCCC(=O)N4)CC2)cc1 (centres undefined) | inactive: -1.74% |
| Cc1ccc(-c2cn3c(n2)sc2cc(C(=O)NCCC4=CCCCC4)ccc23)cc1 | inactive: -1.97% |
| COc1cc(-c2nc(Cn3nnc(C(=O)Nc4cccc(Cl)c4)c3C)c(C)o2)cc(OC)c1OC | inactive: -6.34% |
| CCOC(=O)CSc1nc2c(sc3ccccc32)c(=O)n1CCO | inactive: -0.134% |
| COc1ccc(OCC(O)Cn2c(NCCO)nc3c2c(=O)n(C)c(=O)n3C)cc1 (centres undefined) | inactive: 0.272% |
| Cc1nn(CC(=O)N2CCN(c3ccc(Cl)cc3)CC2)c(=O)c2cccn12 | inactive: -7.15% |
| Cc1cc(C)c(NC(=O)C2CCN(c3nn4c(=O)cc(C)nc4s3)CC2)c(C)c1 | inactive: 0.649% |
| COc1ccc(NCc2cccn2-c2nnc(N3CCCCC3)s2)cc1OC | inactive: 5.42% |
| Cc1ccc2nc(COc3ccccc3NC(=O)c3ccc(F)cc3)cc(=O)n2c1 | inactive: -11.6% |
| O=C(CSc1nc2c([nH]c3ccccc32)c(=O)n1-c1ccc(Cl)cc1)c1ccccc1 | inactive: -7.71% |
| Cc1cc(C)cc(NC(=O)Cn2cc(C(=O)C3CCCCC3)c3ccccc32)c1 | inactive: -25.3% |

| SMILES | activity change, negative = inhibition |
| --- | --- |
| Cc1ccc2c(=O)cc(C(=O)Nc3ccc(S(=O)(=O)Nc4ncccn4)cc3)oc2c1C | inactive: 6.17% |
| Cc1ccc(-n2c(=O)c3c(c4cc(C)ccc4n3C)n(CC(=O)N3CCCC3)c2=O)cc1 | inactive: -2.32% |
| O=C(CSC1=Nc2ccccc2N=C(c2ccc(F)cc2)C1)Nc1ccccc1 | inactive: -7.6% |
| COc1ccccc1CNC(=O)c1cn(C)c2ccc(S(=O)(=O)N(C)C3CCCCC3)cc2c1=O | inactive: 0.557% |
| CC(C)(C)C1CCc2oc3ccc(NS(=O)(=O)c4ccc(C(=O)O)cc4)cc3c2C1 (centres undefined) | inactive: 1.99% |
| COc1ccc(Cn2c(SCC(=O)N(C)Cc3ccccc3)nc3ccccc32)cc1 | inactive: 0% |
| Cc1ccc(NC(=O)Cn2c(=O)nc(-c3ccccc3)c3ccccc32)cc1F | inactive: 2.49% |
| COc1ccc(CCNc2ncnc3c2cnn3-c2cc(Cl)ccc2C)cc1 | inactive: -12.6% |
| Cc1cccc(-c2noc(-c3ccc(N4CCOCC4)c([N+](=O)[O-])c3)n2)c1 | inactive: -12% |
| CC1CCN(S(=O)(=O)c2ccc3c(ccc(=O)n3CC(=O)Nc3cccc(F)c3)c2)CC1 | inactive: -2.01% |
| O=C(Nc1cnc(N2CCN(c3ccccc3)CC2)c(C(=O)O)c1)c1cccs1 | inactive: -0.247% |
| Cc1ccc(NC(=O)c2cc(S(=O)(=O)NCCc3ccc(Cl)cc3)ccc2F)cc1 | inactive: -0.753% |
| CC1CCCCN1C(=O)c1cc(-c2ccc(Br)cc2)on1 (centres undefined) | inactive: -3.68% |
| COc1ccc(C2N=C(N)Nc3nc4ccccc4n32)cc1 (centres undefined) | inactive: -6.73% |
| CCOC(=O)C1CCN(c2nc3c(S(=O)(=O)c4ccc(C)c(C)c4)nnn3c3ccc(Cl)cc23)CC1 | inactive: -7.09% |
| CC1=C(C(=O)N2CCN(c3cccc(Cl)c3)CC2)C2(CCCCC2)OC1=O | inactive: 8.22% |
| CCN(C(=O)c1cc2c(=O)oc3ccc(C)cc3c2s1)c1ccccc1C | inactive: -9.43% |
| CCN(CC)S(=O)(=O)c1ccc2nc(NC(=O)c3cncc(Br)c3)sc2c1 | inactive: 0% |
| Cc1cccn2c(=O)c(C(=O)NC(C)c3ccccc3)cnc12 (centres undefined) | inactive: -0.0959% |
| Cc1ccc(OCc2nc(-c3ccc(C(=O)NCc4ccc(OC(C)C)cc4)cc3)oc2C)cc1 | inactive: -0.68% |
| CCOc1ccc(N(C)S(=O)(=O)c2ccc3[nH]cc(C(=O)NCc4ccccc4)c(=O)c3c2)cc1 | inactive: -9.11% |
| Cc1nc2scc(C)n2c(=O)c1S(=O)(=O)NCCc1ccccc1 | inactive: -2.48% |
| Cc1cc(C)cc(N2C(=O)N(Cc3cccc(F)c3)c3ccccc3S2(=O)=O)c1 | inactive: -5.92% |
| Cc1ccc(C(=O)c2cn(Cc3ccc(Cl)cc3)c3nc(C)ccc3c2=O)cc1 | inactive: -3.51% |

| SMILES | activity change, negative = inhibition |
| --- | --- |
| COc1ccc(N2CCN(C(=O)CSc3n[nH]c(-c4ccccc4Cl)n3)CC2)cc1 | inactive: -28.1% |
| COc1ccc(Nc2oc(-c3ccc(COc4ccccc4C)o3)nc2C#N)cc1 | inactive: -14.5% |
| Cc1ccc(C)c(CN2C(=O)c3ccccc3S(=O)(=O)c3ccc(C(=O)NCCC4=CCCCC4)cc32)c1 | inactive: -0.796% |
| Cc1cc(C)c(NC(=O)C(C)n2nnc3sc4c(c3c2=O)CCCC4)c(C)c1 (centres undefined) | inactive: -3.38% |
| Cc1cc(NC(=O)CN2C(=O)c3cccnc3Sc3ccccc32)ccc1Br | inactive: 0.239% |
| COc1ccc(OC)c2sc(N(Cc3cccnc3)C(=O)c3ccco3)nc12 | inactive: 0.485% |
| Cc1ccc(CNC(=O)c2cc(-c3ccc(Cl)cc3)on2)cc1 | inactive: 0.0775% |
| CCN1CCN(c2ncc3c(n2)CC(c2ccccc2O)CC3=O)CC1 (centres undefined) | inactive: -10.1% |
| Cc1ccc2oc(=O)c(S(=O)(=O)c3ccc(C(C)(C)C)cc3)cc2c1 | inactive: -5.76% |
| CN(C)c1ccc(CNC(=O)CN2CCSc3ccc(S(=O)(=O)N(C)C)cc32)cc1 | inactive: -0.596% |
| Cc1ccc(NC(=O)C2CCN(c3nn4cc(-c5ccc(C)cc5)nc4s3)CC2)cc1 | inactive: 4.45% |
| CCCCCn1c(=O)[nH]c2cc(C(=O)N3CCN(c4cccc(C(F)(F)F)c4)CC3)ccc2c1=O | inactive: -8.77% |
| Cc1ccc(CNC(=O)CNS(=O)(=O)c2cccs2)cc1 | inactive: 3.37% |
| CCN(c1ccccc1)S(=O)(=O)c1nnc(NC(=O)COc2cccc(C)c2)s1 | inactive: 0% |
| COc1ccc(CNC(=O)c2oc3c(c2C)-c2nn(Cc4ccc(Cl)cc4)cc2CC3)cc1 | inactive: 6.89% |
| O=C(Nc1ccc(Br)cc1)C1CCCN1S(=O)(=O)c1ccc(F)cc1 (centres undefined) | inactive: 0.185% |
| CC(C)(C)c1ccc(C(=O)Nc2sc3c(c2C#N)CCC(C(C)(C)C)C3)cc1 (centres undefined) | inactive: 8.9% |
| CCOc1ccc(NC(=O)Cn2c(=O)n(CC(=O)NCc3ccccc3Cl)c(=O)c3sccc32)cc1 | inactive: -22.8% |
| COc1cc(OC)c(NS(=O)(=O)c2c(C(=O)N3CCC(C)CC3)c(C)n(C)c2C)cc1Cl | inactive: 0% |
| Cc1cc(Nc2ccc(C(=O)O)c(O)c2)n2ncnc2n1 | inactive: -8.59% |
| COc1ccc(CCNC(=O)CCn2c(=O)c3ccccc3n(Cc3ccccc3)c2=O)cc1OC | inactive: -7.26% |
| CC(C)c1nn2c(=O)cc(COC(=O)c3ccccc3NC(=O)c3cccc(Cl)c3)nc2s1 | inactive: 5.54% |
